According to patent EP4772530A1, “PEPTIDE TARGETING SOMATOSTATIN RECEPTOR, DRUG CONJUGATE AND USE THEREOF” (Mainline Biosciences (Shanghai) Co., Ltd., priority 2023, dated 2025):

Tests used:
[1] = tested on: NCI-H69 cells; assay type: in vivo, Balb/c nude mice; details: for Tumor Volume (Mean ± SEM): Example 4 22.8mpk
[2] = tested on: NCI-H69 cells; assay type: in vivo, Balb/c nude mice; details: Example 4 53.7 mg/kg; for Tumor Volume (Mean): intravenous, 4 consecutive days of injection followed by 3 days of rest
Protocol: Balb/c nude mice, 6-8 weeks old, female, sourced from Shanghai Jihui Laboratory Animal Care Co., Ltd.
The cells were collected after they grew to the logarithmic growth phase, washed twice with serum-free medium, and resuspended in serum-free medium. The cells were then collected, counted, and inoculated.
Each mouse was subcutaneously injected with 0.1 mL of NCI-H69 tumor cell suspension containing 50% Matrigel at right axilla (5.00 × 10^6/animal, with the day of administration designated as Day 0). When the tumor volume reached about 100 mm^3, mice were selected and randomly divided into groups (vehicle control and Example 4 treatment groups, with 6 animals per group) using Excel based on their tumor size and body weight. Each mouse received an intravenous injection of 5% DMSO + 95% normal saline or the drug of Example 4 (53.7 mg/kg), with 4 consecutive days of injection followed by 3 days of rest as a cycle.
The mice were measured for body weight twice a week using an electronic balance. The tumor diameter was measured three times a week using a vernier caliper. The tumor volume was calculated as follows: V = 0.5×a×b^2, where a and b were the length and width of the tumor, respectively.
Relative tumor proliferation rate: T/C (%) = TRTV /CRTV × 100%(RTV=Vt/V0). [formula]
Tumor growth inhibition rate: TGI (%) = (1−T/C) × 100%. [formula]

[3] = Example 4 22.8 mg/kg, 6 animals per group

CC[C@H](C)[C@@H]([C@@H](CC(=O)N1CCC[C@H]1[C@H](OC)[C@@H](C)C(=O)N[C@H](C)[C@@H](O)c1ccccc1)OC)N(C)C(=O)[C@@H](NC(=O)[C@H](C(C)C)N(C)C(=O)OCc1ccc(O[C@@H]2O[C@H](C(=O)O)[C@@H](O)[C@H](O)[C@H]2O)c(NC(=O)CCNC(=O)CCCCCN2C(=O)CC(SC[C@H](NC(C)=O)C(=O)NCCOCCOCC(=O)NCCOCCOCC(=O)NCCOCCOCC(=O)N[C@@H](CCCNC(=N)N)C(=O)N[C@@H](CCCNC(=N)N)C(=O)N[C@@H](CC(C)C)C(=O)N[C@@H](Cc3ccccc3)C(=O)N[C@H]3CSSC[C@@H](C(=O)N[C@H](C(=O)N[C@@H](Cc4c[nH]c5ccccc45)C(=O)N[C@@H](CCCNC(=N)N)C(=O)N[C@@H](CC(=O)O)C(N)=O)[C@@H](C)O)NC(=O)[C@H]([C@@H](C)O)NC(=O)[C@H](CCCCN)NC(=O)[C@@H](Cc4c[nH]c5ccccc45)NC(=O)[C@H](Cc4ccc(O)cc4)NC3=O)C2=O)c1)C(C)C (stereo partly drawn) [Example 4, Ac-Cys(MC-betaglucuronide-MMAE)-AEEA-AEEA-AEEA-Arg-Arg-Leu-Phe-[Cys-Tyr-D-Trp-Lys-Thr-Cys]-Thr-Trp-Arg-Asp-NH2] (I: Ac-C[AEEA][AEEA][AEEA]RRLFCY[dW]KTCTWRD-NH2 / II: [X1][NMeV]V[Dil][Dolaproine]-X2; linker I:1-II:N via X3; disulfide I:9-I:14)
TGI ([1]; By Day 32, Example 4 22.8 mg/kg, intravenous, twice a week): 87.90% | tumor inhibition compared to the vehicle control group ([1]; By Day 32, Example 4 22.8 mg/kg, p< 0.001): significant tumor inhibition | Tumor Volume (Mean ± SEM) ([1]; Day 18, intravenous, twice a week): 149±11 mm3 | Tumor Volume (Mean ± SEM) ([1]; Day 21, intravenous, twice a week): 187±24 mm3 | Tumor Volume (Mean ± SEM) ([1]; Day 25, intravenous, twice a week): 150±44 mm3 | Tumor Volume (Mean ± SEM) ([1]; Day 28, intravenous, twice a week): 149±47 mm3 | Tumor Volume (Mean ± SEM) ([1]; Day 32, intravenous, twice a week): 114±36 mm3 | Tumor Volume (Mean ± SEM) ([1]; Day 35, intravenous, twice a week): 85±24 mm3 | Tumor Volume (Mean ± SEM) ([1]; Day 39, intravenous, twice a week): 40±12 mm3 | Tumor Volume (Mean ± SEM) ([1]; Day 42, intravenous, twice a week): 32±8 mm3 | Tumor Volume (Mean ± SEM) ([1]; Day 46, intravenous, twice a week): 16±12 mm3 | mice that achieved PR (partial response, tumor shrinkage by more than 50%) [1, 3]: 2/6 | mice with no change (tumor shrinkage by less than 50% or increase by less than 25%) [1, 3]: 1/6 | TGI ([2]; By Day 34): 93.9% | tumor inhibition compared to the vehicle control group ([2]; By Day 34, p< 0.001): significant tumor inhibition | Tumor Volume (Mean) ([2]; Day 16): 307 mm3 | Tumor Volume (Mean) ([2]; Day 20): 376 mm3 | Tumor Volume (Mean) ([2]; Day 23): 376 mm3 | Tumor Volume (Mean) ([2]; Day 27): 238 mm3 | Tumor Volume (Mean) ([2]; Day 30): 135 mm3 | Tumor Volume (Mean) ([2]; Day 34): 68 mm3

Like-named read-outs stand apart in the source and are kept apart here. *1 amine or outer side, *2 acyl side, *3 side chain or, on linkers, in order; H or OH if unused. Where a SMILES comes first, the peptide text is derived from it. Bridges are numbered along the chain shown (N, C = ends). Roman numbers before positions name the chains, in order. [ ]: non-standard residue; d: D form. The star is where a group is joined. X1 = O=C(O)[C@H]1O[C@@H](Oc2ccc(COC(=O)[*:2])cc2N[*:1])[C@H](O)[C@@H](O)[C@@H]1O; Dolaproine = CO[C@@H]([C@@H]1CCCN1)[C@@H](C)C(=O)O; X3 = O=C(CCCCCN1C(=O)CC([*:1])C1=O)NCCC(=O)[*:2]; Dil = CC[C@H](C)[C@H](NC)[C@@H](CC(=O)O)OC; X2 = C[C@@H](N*)[C@@H](O)c1ccccc1; NMeV = CN[C@H](C(=O)O)C(C)C; AEEA = NCCOCCOCC(=O)O
